The supplement of paper PMC3334620
The full ranking holds about 33,000 sequences; the median of “E-score (-0.5 to 0.5)” is about -0.016, and the highest 2% start at about 0.32. Some of the results follow.

Biological target: T1, Stp1 (UniProt B3LFK1)
T1 sequence: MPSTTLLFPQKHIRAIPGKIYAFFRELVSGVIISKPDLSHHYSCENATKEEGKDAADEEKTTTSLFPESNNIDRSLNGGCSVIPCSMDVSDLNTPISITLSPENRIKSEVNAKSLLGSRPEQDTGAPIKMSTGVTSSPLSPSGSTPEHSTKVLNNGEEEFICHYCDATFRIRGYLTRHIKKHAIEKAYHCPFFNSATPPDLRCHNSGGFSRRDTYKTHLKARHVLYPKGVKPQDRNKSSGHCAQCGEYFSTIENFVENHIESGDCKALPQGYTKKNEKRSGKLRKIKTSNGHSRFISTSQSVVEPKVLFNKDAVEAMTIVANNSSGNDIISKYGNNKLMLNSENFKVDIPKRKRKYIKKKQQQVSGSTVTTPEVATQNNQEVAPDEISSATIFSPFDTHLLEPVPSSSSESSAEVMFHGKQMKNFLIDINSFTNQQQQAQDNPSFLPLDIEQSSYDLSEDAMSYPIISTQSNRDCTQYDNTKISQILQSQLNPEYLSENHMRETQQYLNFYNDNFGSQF
Test: PBM E-score (8-mer binding enrichment) (E-score (-0.5 to 0.5)); higher = stronger / more preferred TF binding; most listed sequences are background and not binding sites
Settings: protein concentration: 200 nM; construct: GST-full length
Method in brief: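 The E-score, a modified Wilcoxon-Mann-Whitney statistic, was computed by the Universal PBM Analysis Suite for every ungapped eight-base word pooled with its reverse complement. Scans behind it were normalised with masliner after bound GST-tagged yeast transcription factors were detected with fluorescent anti-GST. The proteins, at about 100-200 nM, had been applied to universal all-10-mer Agilent arrays made double-stranded by primer extension.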

| Sequence | PBM E-score |
| --- | --- |
| GCCCCCCA | -0.366 |
| AGAGACCA | -0.186 |
| AACGACTA | 0.0864 |
| CTTAGGTA | -0.127 |
| TCCGGCAA | -0.00549 |
| CGAGGTAA | 0.0437 |
| ACTGAATA | 0.151 |
| AACCCGCT | -0.133 |
| GGTAGATA | -0.0205 |
| CGGTTATC | -0.0601 |
| ATAAACAG | -0.0421 |
| TGTAAGAA | 0.186 |
| CAATCACG | 0.174 |
| AATAATGG | 0.0405 |
| TAACTAGA | 0.169 |
| ACATACGC | 0.0727 |
| GGCGTAAC | 0.00498 |
| AAATACTT | 0.0537 |
| ATGATACA | 0.129 |
| CCGTGCTA | 0.157 |
| ACTCAGCC | -0.17 |
| AATTTCTG | 0.154 |
| GAGCATAA | 0.173 |
| AAATTTAA | 0.177 |
| GTTCTGCA | -0.0148 |

| Sequence | PBM E-score |
| --- | --- |
| ATACGTAG | -0.00523 |
| CCCAGTCG | -0.267 |
| AAACGTAC | -0.0101 |
| ATGCTACG | 0.00328 |
| GTATTCAC | 0.113 |
| TCTCGTAA | 0.19 |
| TGCTCCAA | 0.12 |
| ACATGAAC | 0.0617 |
| ATCACAGG | -0.202 |
| CTTCTGAC | -0.1 |
| CAAGCGCA | -0.0229 |
| CCATAGGC | -0.103 |
| ACGAGCTG | -0.0141 |
| CAGGCTGA | -0.157 |
| CGCCTCTC | 0.0325 |
| GAATGCTC | -0.128 |
| TAAAGACA | -0.0443 |
| CCACCAAC | -0.0671 |
| TCGCTACA | -0.25 |
| ATGAATGC | 0.137 |
| ACCGGCGT | 0.0951 |
| ATGACAAT | 0.183 |
| CTCATAAC | 0.0397 |
| ATAGGTAA | -0.0396 |
| ACGCCTTC | 0.204 |

| Sequence | PBM E-score |
| --- | --- |
| AGACCTCT | -0.252 |
| CATGACCG | -0.196 |
| CTTGAGAC | -0.142 |
| CACGAATG | 0.133 |
| ACTGCACT | -0.0486 |
| CGCAAAAC | 0.178 |
| AGGGTGAT | -0.195 |
| CGAATCGC | 0.0206 |
| GCACCCGC | -0.0179 |
| CTCACCGC | -0.161 |
| AGACAGCT | -0.102 |
| AGTTAATA | 0.155 |
| ACACAAGG | 0.136 |
| ATAGGTCG | -0.0394 |
| GGGAAGAA | -0.0458 |
| TCCTTCCA | -0.276 |
| CATTATTC | 0.154 |
| ATCCTGCG | -0.0188 |
| ATCCCCGG | -0.283 |
| CTCTTAAG | 0.0162 |
| AGTCGCCA | -0.199 |
| CTTTGAGC | -0.0965 |
| CGAAGACC | -0.115 |
| ATGCCCAT | -0.0356 |
| ACTGCACA | -0.0746 |

| Sequence | PBM E-score |
| --- | --- |
| CATCGTCG | -0.0468 |
| GTTTTCCA | 0.0851 |
| ATGCTCCC | -0.339 |
| TAGAGTCA | -0.261 |
| CAAGGAAA | -0.0626 |
| ATCGGACG | -0.18 |
| GGTGAAGA | 0.0112 |
| ACTAGCGG | 0.0202 |
| GTGACGGA | -0.111 |
| CAGCCGGG | -0.135 |
| ATACAGCA | 0.0146 |
| TACTTGGA | 0.119 |
| AAAAGACT | -0.0853 |
| AATGTCAT | -0.00238 |
| GACGAGAC | -0.315 |
| CGCTCTAA | 0.11 |
| CGCGACTA | 0.0871 |
| TATGTTAA | 0.0905 |
| GGCCCTGA | -0.146 |
| CGCCAATC | 0.00033 |
| ACCGTCAG | -0.279 |
| CAAACTCA | 0.0872 |
| TAGGGCCA | -0.0444 |
| AAAAGTTG | 0.171 |
| TAGGCTGA | -0.0652 |

| Sequence | PBM E-score |
| --- | --- |
| CATATATG | 0.0581 |
| CGCAGGAC | -0.121 |
| CGAGGGGC | -0.111 |
| ACCTTTCC | -0.194 |
| ATTAGTTC | 0.0233 |
| CCCACTCG | -0.172 |
| CACCAGGA | 0.0475 |
| AAGGTTGA | -0.127 |
| CCGAACAA | 0.117 |
| CGTTCACA | 0.0691 |
| CTCAGCAG | -0.137 |
| CTCTGCCC | -0.164 |
| AAGGACTA | -0.222 |
| GCCAGGGC | -0.143 |
| AGCGGGCC | -0.0447 |
| CGCCCTCC | 0.0021 |
| TACGGTGA | 0.0598 |
| AACTACAG | -0.0699 |
| GAGCAAGC | -0.13 |
| TCAGAAAA | -0.0863 |
| AAGGTCAC | -0.152 |
| CCCCTCTA | -0.313 |
| CCTGCTGA | -0.107 |
| ACTTCTTC | -0.0867 |
| AATCTAGT | 0.198 |

| Sequence | PBM E-score |
| --- | --- |
| AGGGGGAA | -0.337 |
| CGCTTGAC | -0.0561 |
| GAGTTTAA | 0.0967 |
| GACCCTAA | -0.203 |
| CGTATTAC | 0.0586 |
| ATTCAGGG | -0.0654 |
| CGCATTGA | 0.139 |
| CTCTGAAC | -0.162 |
| CGGATGAC | -0.0434 |
| CGATCGCA | 0.0463 |
| AGGTCCGC | -0.178 |
| ATGCAGGG | -0.117 |
| AAAGCTAA | 0.103 |
| GGACCTGA | -0.151 |
| CAGTCGGG | -0.14 |
| TACGCACA | 0.12 |
| CCACTCGC | 0.0516 |
| ACAAATAA | 0.226 |
| CGCTGGGC | -0.0854 |
| GAACCGGA | -0.0308 |
| TGGGCGAA | -0.0429 |
| CGACCGAC | -0.0518 |
| TATTCGGA | 0.107 |
| CAAAGACA | 0.0138 |
| ACGTCCTA | -0.0505 |

| Sequence | PBM E-score |
| --- | --- |
| GAACGCAC | 0.099 |
| AGGATGCA | -0.047 |
| AGTAATCA | 0.12 |
| ATCCGTTA | 0.178 |
| TGGCCACA | -0.103 |
| GCTATCAC | -0.12 |
| GTACGCGA | -0.186 |
| TCTCAGCA | -0.122 |
| ACAAATTG | 0.032 |
| CCTGGTTA | -0.202 |
| ATATCCGG | -0.0519 |
| TCGAGCCA | 0.0134 |
| ATCCACTC | -0.0431 |
| ACGGCATA | 0.45 |
| CTCCAGTC | -0.0847 |
| CGGAAACG | -0.0276 |
| AGTGAGGG | -0.325 |
| ACCTTTTG | -0.0875 |
| AAGGACTC | -0.169 |
| AAACGTAG | -0.195 |
| ACCCGCCT | -0.0919 |
| ATTAGCGC | 0.221 |
| AACAGTTG | -0.335 |
| CTATACTA | -0.0436 |
| AGACCAAA | 0.0439 |

| Sequence | PBM E-score |
| --- | --- |
| ATGTTCGG | -0.0184 |
| ACGTGATC | -0.009 |
| CAAACATA | -0.094 |
| AAGGAGAG | -0.317 |
| GCAATTAA | 0.045 |
| GGCTATAC | -0.0397 |
| AACTTTTG | 0.207 |
| AATCTCGC | 0.215 |
| AAGCACAA | 0.173 |
| CAGCATTA | -0.133 |
| CTAGCCAG | -0.164 |
| ATCATTCC | 0.00642 |
| GACCCCCA | -0.352 |
| CCTCAACG | -0.182 |
| CTACAAAC | 0.062 |
| GATGTGGA | -0.051 |
| GAATCCGA | 0.13 |
| AGGTGAAC | -0.0912 |
| ACCTAACT | 0.0768 |
| CTTCGTAC | -0.0412 |
| AACAATCT | 0.0449 |
| TGACATAA | 0.155 |
| ACCATTAT | 0.108 |
| CGCGTCGC | 0.128 |
| AAGGTAAA | 0.105 |

| Sequence | PBM E-score |
| --- | --- |
| CACGATGG | -0.0468 |
| GCACCTAA | 0.0243 |
| AGTCGGTG | -0.266 |
| AATGCGAG | -0.0522 |
| AGAAGTGG | -0.141 |
| TATTAACA | 0.185 |
| TAAACGAA | 0.154 |
| ACATGTAT | 0.0569 |
| CGCAAGCA | -0.106 |
| CGCCCTCA | -0.271 |
| ATGAAGGC | 0.0786 |
| CTTAACCA | 0.125 |
| AGATGACC | -0.0479 |
| GGACTAGA | -0.105 |
| ACGCGAAT | -0.00535 |
| CATGTGAC | 0.025 |
| AACATAGA | -0.151 |
| AACTTCTT | 0.0454 |
| ACCGCAGG | 0.128 |
